Results as given in PubChem BioAssay AID743279 (National Center for Advancing Translational Sciences (NCATS), 2014).
The campaign covered roughly 360,000 compounds. About 17,000 (4.7%) were called active. This list was built around the results that the source calls inconclusive (neither active nor inactive); the mix of calls is not that of the screen. Cut-off read from the data, not from the text of the source: active = activity change below about -50%; inconclusive = mostly about -30% to -49%; inactive = weaker than that.

experiment: qHTS for Inhibitors of Inflammasome Signaling: IL-1-beta AlphaLISA Primary Screen; settings: THP-1 LPS/ATP IL-1B secretion, 16 h; at 57.5 µM, active compounds read low
In short: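 Secreted IL-1B measured by AlphaLISA bead assay after 16 h compound exposure of THP-1 cells; compounds (final up to 57.5 uM) added 1 h before LPS (250 ng/mL) and ATP (1.25 mM) stimulation; lower signal means less secretion.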
% is set by controls: 0 for no effect and ±100 for the full control effect.

| Structure (SMILES) | activity change |
| --- | --- |
| COc1ccc(Cl)cc1Nc1cc(C)nc2ccccc12 | inconclusive: -44.2% |
| CCCCOC(=O)C1C2CCC(O2)C1C(=O)OCC (centres undefined) | inactive: 23.5% |
| O=C(c1ccc(Br)o1)N1CCN=C1SCc1cccnc1 | active: -54.2% |
| CC(=O)Nc1ccc(S(=O)(=O)N(C)c2ccc(OCC(=O)OCC(=O)Nc3ccc(OC(F)F)cc3)cc2)cc1 | inconclusive: -46.4% |
| CCn1c(C)c(C)c2cc(C(=O)NCCCN3CCCCC3C)ccc21 (centres undefined) | inconclusive: -44.1% |
| O=C(COC(=O)c1nc(Cl)ccc1Cl)Nc1ccc2[nH]c(=O)[nH]c2c1 | inactive: 21.3% |
| Cc1cccc(Oc2nc3ccccn3c(=O)c2/C=C(\C#N)C(=O)NC2CCS(=O)(=O)C2)c1C (centres undefined) | active: -99.3% |
| Cc1ccccc1C(=O)NC1CCCN(Cc2ccccc2F)C1 (centres undefined) | inactive: -4.86% |
| CCC(C)NCCOc1ccc(C(C)(C)c2ccccc2)cc1 (centres undefined) | active: -66.2% |
| CCCCNS(=O)(=O)c1ccc2nc(SCC(=O)c3ccccc3OC)[nH]c2c1 | inconclusive: -32.7% |
| CCN(CC(=O)Nc1c(F)cccc1F)C(=O)c1ccc(COc2ccccc2)o1 | inactive: -5.23% |
| CCc1n[n+](CC(=O)c2ccccc2)c(N)s1 | inactive: 14.8% |
| CN(C(=O)CCN1C(=O)/C(=C/c2ccc(F)cc2)SC1=S)C1CCS(=O)(=O)C1 (centres undefined) | inactive: -23.2% |
| Cc1ccc(CN2CCN(C(=O)CC(C)C)CC2)cc1 | inactive: 9.03% |
| Cc1cc(=O)oc2c3c(cc(OCC(=O)NCC4CCC(C(=O)O)CC4)c12)OC(C)(C)CC3 (centres undefined) | inactive: -0.218% |
| COc1ccccc1CN(Cc1cc2cc(C)ccc2[nH]c1=O)Cc1nnnn1Cc1ccco1 | active: -62.3% |
| NNC(=O)CN1C(c2ccc(Cl)cc2)=Nc2ccc(Br)cc2C1c1ccccc1 (centres undefined) | inconclusive: -31% |
| COc1cccc(-n2nnnc2SCC(=O)Nc2cccc(NC(C)=O)c2)c1 | inconclusive: -37.4% |
| COc1cc(SC)ccc1C(=O)Nc1ccc2c(c1)OCCO2 | inconclusive: -33% |
| CC1(C)CCCN(C(=O)c2ccc3c(c2NCCO)C(=O)c2ccccc2C3=O)C1 | active: -64.7% |
| CCOC(=O)C1CCCN(C(=O)c2cc3cc(OC)c(OC)cc3[nH]2)C1 (centres undefined) | inconclusive: -43.4% |

| Structure (SMILES) | activity change |
| --- | --- |
| COCc1cn(CC[C@@H]2CC[C@@H](NC(=O)Nc3ccc4c(c3)OCO4)[C@@H](CO)O2)nn1 | inactive: 30% |
| COC(=O)Nc1ccc(S(=O)(=O)N2CCC(Cc3ccccc3)CC2)cc1 | inconclusive: -33% |
| COc1ccc(Nc2nc(Nc3ccc(OC)cc3)nc(SC3=NCCS3)n2)cc1 | inconclusive: -32.4% |
| CN(C)C(CNC(=O)c1cc(Br)c(Br)s1)c1ccco1 (centres undefined) | inconclusive: -31.8% |
| Cc1cc2nnc(SCC(=O)Nc3cc(S(=O)(=O)N4CCOCC4)ccc3Cl)n2c2ccccc12 | inconclusive: -47.7% |
| OCC1(Cc2cccc(F)c2)CCN(Cc2cccc3nccnc23)CC1 | inconclusive: -35.7% |
| NS(=O)(=O)c1ccc(NC(=O)c2cccc3cc4ccccc4nc23)cc1 | inconclusive: -34.1% |
| Cc1nc(SCC(=O)N2CCCCC2)c2c(C)c(C)sc2n1 | inconclusive: -33.5% |
| CCN(N=O)c1ccc(C=C2C=Cc3ccccc32)cc1 | active: -65.7% |
| CCCC1CCC(c2ccc(/C(N)=N/O)cc2)CC1 (centres undefined) | inconclusive: -31.9% |
| COc1cc(C(=S)N2CCOCC2)ccc1OC(=O)c1ccccc1 | inactive: 27.5% |
| O=C(NCc1ccccc1)C(C1CC1)n1c(=O)c(-c2ccco2)nc2ccccc21 (centres undefined) | inactive: 22.7% |
| Cn1cc(Br)c(C(=O)Nc2sc3c(c2C#N)CCC3)n1 | inconclusive: -47.1% |
| COc1ccc(CNC(=O)COc2cc3c(c4oc(=O)cc(C)c24)CCC(C)(C)O3)cc1OC | inconclusive: -33.6% |
| C[C@H](CO)N1C[C@H](C)[C@@H](CN(C)C(=O)Nc2ccc(C(F)(F)F)cc2)Oc2ccc(NC(=O)NC3CCCCC3)cc2C1=O | inconclusive: -30.9% |
| N#Cc1c(Oc2ccc3ccccc3c2)sc(C(=O)c2ccccc2)c1N | active: -107% |
| COC(=O)COc1cccc(NC(=O)c2cccs2)c1 | active: -52.6% |
| COc1cc(CN2CCN(c3ncccn3)CC2)cc(OC)c1 | inactive: 14.4% |
| CN(C=O)c1ccc(CSc2ccccc2)cc1 | inconclusive: -32.5% |
| CC1(C)C2CCC1(C)C(OCCNCCOC(=O)Nc1ccccc1)C2 (centres undefined) | inconclusive: -45.9% |
| COc1ccc(Nc2nc(S(=O)(=O)c3ccc(C)cc3)c(Cl)s2)cc1 | active: -90.8% |

| Structure (SMILES) | activity change |
| --- | --- |
| Cc1cc(C)c2c(c1)SC1=NC(c3ccccc3)(C(F)(F)F)NC(=O)N12 (centres undefined) | active: -55.9% |
| COc1ccc(C(=O)Nn2c(SCc3ccc([N+](=O)[O-])cc3)nc3ccccc3c2=O)cc1 | inconclusive: -41.5% |
| CCCCCCCC1CC(/C(C)=N/NC(N)=O)OC1=O (centres undefined) | inactive: 14.4% |
| CCOc1ccc(S(=O)(=O)Nc2cccc(C(=O)N(C)CC(=O)Nc3ccc(OC)cc3)c2)cc1 | inactive: 5.24% |
| Cc1ccc(S(=O)(=O)NCC2(c3ccccc3)CCN(C)CC2)cc1 | active: -65.9% |
| CC(C)C[C@H]1CNC(=S)N1C[C@H]1CCCN1C[C@H](Cc1ccccc1)N1C[C@H](Cc2ccc(O)cc2)N(CC2CCCCC2)C1=S | inconclusive: -40.8% |
| Cc1ccc(CN(C(=O)Cc2cccs2)C(C(=O)NC2CCCC2)c2ccncc2)cc1 (centres undefined) | inconclusive: -38.1% |
| COc1ccc(-c2nn(-c3ccccc3)cc2CNC[C@H]2O[C@@H](n3cnc4c(N)ncnc43)[C@H](O)[C@@H]2O)cc1 | inconclusive: -38.5% |
| Cc1ccc(NC(=O)Cn2ccc(=O)[nH]c2=O)cc1 | inactive: 20.8% |
| COc1ccc(CCN2CC(C(=O)N3CCCCCC3)CCC2=O)cc1 (centres undefined) | inactive: -10.9% |
| Cc1ccc(C(=O)Nc2ccncc2)cc1[N+](=O)[O-] | active: -54.5% |
| COC(=O)[C@@]12C[C@@H](CC(=O)NCc3cccc(C(F)(F)F)c3)C(=O)N(CCc3ccc(OC)c(OC)c3)C1=CCC(C)(C)C2 | inconclusive: -46.6% |
| Cn1cc(/C=C/c2cc[n+](C)cc2)c2cc(Cl)ccc21 | active: -60.4% |
| COc1ccc(Cl)cc1NC(=O)CN(C)C(=O)Cc1ccc(-c2ccccc2)cc1 | inconclusive: -38.5% |
| COCCNC(=S)N(CCc1c(C)[nH]c2ccc(OC)cc12)Cc1cccnc1 | inactive: 0% |
| CC(C)C1C(=O)N(Cc2cn(CC3CCCCC3)nn2)CCS(=O)(=O)N1Cc1ccc(-c2ccc(Cl)nc2)cc1 (centres undefined) | inconclusive: -39.3% |
| O=C(C1CCN(S(=O)(=O)N2CCCCC2)CC1)N1CCCCC1 | inactive: 15.3% |
| O=[N+]([O-])c1ccc(NS(=O)(=O)c2ccccc2)c(Cl)c1 | inconclusive: -31.2% |
| CC1CCCC(C)N1S(=O)(=O)c1ccc(S(=O)(=O)NCCc2ccncc2)cc1 (centres undefined) | inconclusive: -35.8% |
| Cc1ccc(NC(=O)C2CC(=O)n3ncnc3N2)cc1 (centres undefined) | inactive: 36% |
| Cc1ccc(C(=O)CCS(=O)(=O)c2ccc(Br)cc2)cc1 | inconclusive: -44.9% |

| Structure (SMILES) | activity change |
| --- | --- |
| CCOC(=O)N1CCN(C(=O)c2c(Cl)cnn2C)CC1 | inactive: 58.8% |
| CC(C)C(=O)NC(=S)Nc1ccccc1N1CCN(C(=O)c2ccc(Cl)cc2)CC1 | inactive: -3.93% |
| CNC(=S)Nc1ccc(C)c(NC(=S)NC)c1 | inactive: 11.6% |
| O=C1CC(c2ccccc2)Oc2ccccc21 (centres undefined) | inconclusive: -37.8% |
| COc1cccc(CNS(=O)(=O)c2ccc3c(c2)CC(C)N3C(=O)C2CCC2)c1 (centres undefined) | inconclusive: -37.1% |
| CCN(CC)Cc1c(C(=O)N/N=C/c2cccc(OCc3ccc(F)cc3)c2)nnn1-c1nonc1N | inconclusive: -44.1% |
| CCN(CC(=O)Nc1ccc(NC(C)=O)cc1)C(=O)c1ccc(COc2ccc(C(C)(C)C)cc2)cc1 | active: -50.9% |
| CCN1CCN(C(=S)Nc2ccc3nc(N4CCN(CC)CC4)cc(C)c3c2)CC1 | inconclusive: -45.6% |
| O=[N+]([O-])c1ccc(OCC(O)CN(C2CCCCC2)C2CCCCC2)cc1 (centres undefined) | inconclusive: -34% |
| O=C(Nc1ccc(Oc2ccccc2)nc1)C1CCCCN1Cc1ccc(OCCO)cc1 (centres undefined) | inactive: -5.18% |
| N#CCC(=O)Nc1ccc(C(=O)OCC(=O)c2ccc3c(c2)OCO3)cc1 | inconclusive: -30.1% |
| Cc1nc2c(-c3ccc(F)cc3)c(C)nn2c(C)c1CCC(=O)NC(C)CCc1ccco1 (centres undefined) | inconclusive: -36% |
| Cc1c(C(=O)N2CCN(c3ccccc3F)CC2)sc2nc(-c3ccccc3)cn12 | inconclusive: -31.6% |
| COc1ccc(-c2csc(Nc3cccnc3)n2)cc1OC | inconclusive: -34.7% |
| CCN1CCN(c2ccc(NC(=O)CCc3c(C)nc4c(-c5ccc(F)cc5)c(C)nn4c3C)cc2)CC1 | inconclusive: -32.4% |
| CCOc1ccc(NCc2cccn2-c2nnc(N3CCC(C(=O)NCCCN4CC(C)CC(C)C4)CC3)s2)cc1 (centres undefined) | active: -82.4% |
| CC(C)C[C@@H](CN1CCC[C@@H]1CN1C(=O)C(=O)NC[C@@H]1Cc1ccccc1)N1C[C@H](Cc2ccccc2)N(CC2CCCCC2)C(=O)C1=O | inconclusive: -39.8% |
| O=C(Nc1nccc(-c2cccs2)n1)c1cccs1 | inconclusive: -33.7% |
| CC(C)NC(=O)COc1ccc(Cl)cc1Cl | inconclusive: -46.4% |
| Cc1ccc(-c2nn(-c3ccccc3)cc2C(=O)NC2CCC(O)CC2)cc1 (centres undefined) | inconclusive: -48.8% |
| Cc1ccc(C2C3CSCC=C3C(C#N)=C(N)C2(C#N)C#N)cc1 (centres undefined) | inconclusive: -35.2% |
